# Measurements as given in article PMC12136788.
# Some of the results follow.
# B1: chr15:38485071:38485172:+|3pUTR|ENSG00000171262|unk|total|mutant (ssRNA)
# RNA: GGGAGUUCUACAGUCCGACGAUCUUGCCUCACCUGUAUUGCUGUGGAUGUGUUUUGUGGGUUUUUCAUUCGAUUUUACAAAACCGGGAAAGGCACUUCCAGUUGUAUUCCGCCGGCAGUUGUUGUGAAUCAUUUUUUUCUCUUCAACAGAGGAUUGAGCAUCA
# B2: ENSG00000198589:be:win_2301|CDS|ENSG00000198589|bound_else_gene|NA|bound_elsewhere_windowed (ssRNA)
# RNA: GGGAGUUCUACAGUCCGACGAUCGCUAGCUGAAAGGCUCAUGCUUCAGACAAAUUUAAUCACAAUGACCACAUAUAAUGUGCUGUUUGAGAUUCUUAUAGAACAGAUUGGUACUCAGGUGAUACAUAAACAGCAUCCAGAUCCCAACAGAGGAUUGAGCAUCA
# B3: ENSG00000070961:be:win_4951|3pUTR|ENSG00000070961|bound_else_gene|NA|bound_elsewhere_windowed (ssRNA)
# RNA: GGGAGUUCUACAGUCCGACGAUCGGUAACAGCCCCAUGAAGUACCGCUUUAAUUCCUUGCUGGUAAUCUAAUAGAAUCAGAUUAAGAAAAUUAACACAAUUUUACCAUUUGACAUACUCUUCAUUGAAUUUAGUUUGUCUAAACAACAGAGGAUUGAGCAUCA
# B4: chr3:121987322:121988366:-|three_prime_utr|ENSG00000145103|control|control|control (ssRNA)
# RNA: GGGAGUUCUACAGUCCGACGAUCCCAAGCACAGCACAACUUCUGUGGCUACUUCUCGGCUCCUGUGUGUCAUCAGCAUCACCUAGGUUUCCAGCUGACUUGGGAACUGCAAGUCUGAGUCUAACAGUUUUUGGCUUAGAUUCUCAACAGAGGAUUGAGCAUCA
# B5: chr17:31995613:31995700:+|CDS|ENSG00000178691|msi1_unk|FALSE|overlapping (ssRNA)
# RNA: GGGAGUUCUACAGUCCGACGAUCAGCAUGUCUGAAUUUCUUGAAUCUGAAGAUGGGGAAGUAGAACAGCAAAGAACAUAUAGUAGUGGCCACAAUCGUCUGUAUUUCCAUAGUGAUACCUGCUUACCUCUCCGUCCACAAGAACAACAGAGGAUUGAGCAUCA
# B6: chr17:81922623:81922724:-|CDS|ENSG00000197063|msi1|FALSE|unique (ssRNA)
# RNA: GGGAGUUCUACAGUCCGACGAUCUGCCGCCGGCCUGGGGCCCCUCGUCCCAGGCAAGGUGGCCGCCACCAGCGUCAUCACAAUAGUAAAGUCCAAGACGGAUGCCCGAUCGUAGGGACGCGCGUCUGCCCAGGCGGGUCUUUGCAACAGAGGAUUGAGCAUCA
# B7: chr6:149811313:149811414:+|3pUTR|ENSG00000120265|msi1|total|mutant (ssRNA)
# RNA: GGGAGUUCUACAGUCCGACGAUCUGUUUCUAAUUUGCUGCUGAUAAUGUAUAUGAACUUAACAUGCUGUGUAAGCUGUGUCCCCGUUCUUGAACAGUUUAUGCAGUGCUGCUUUGCCAAAUAAAGUUAAAAGUAAAAGAGGCACAACAGAGGAUUGAGCAUCA
# B8: chr12:52170242:52170446:-|3pUTR|ENSG00000167767|msi1|total|mutant (ssRNA)
# RNA: GGGAGUUCUACAGUCCGACGAUCUGGCCCUCCCCUCCUUGGCAUUCAUGGGGGAGCCCAGGAACCCCCCACACCUAUGGGGUCCGAGCUCCUCCUUUCUUCUCACUCCUUCCCCUUCCUCCCUCCAUGCCCACUCCCCCUGCCCAACAGAGGAUUGAGCAUCA
# B9: chr8:41263181:41263319:-|3pUTR|ENSG00000104332|msi1|FALSE|unique (ssRNA)
# RNA: GGGAGUUCUACAGUCCGACGAUCCUUAAGUGAUUUGCCUGUAAUUUUGGAUGAUUAAAAAAUGUGUAUAUAUAUUAGCUAAUUAGAAAUAUUCUACUUCUCUGUUGUCAAACUGAAAUUCAGAGCAAGUUCCUGAGUGCGUGGCAACAGAGGAUUGAGCAUCA
# B10: ENSG00000075240:stop:overlap|stop_codon|ENSG00000075240|stop_codon|NA|stop_codon (ssRNA)
# RNA: GGGAGUUCUACAGUCCGACGAUCAGACCAUUCUCAGCCAGUACAUCAAGAUCACCUCAGCGGCAGCGUCUGGCGGGGACAGCUAGUAUUGACUUGCCCAGGACGUUGCUGGAAUUUUCUUUUUCUUUUUCUUUUUCUUUUUUUCAACAGAGGAUUGAGCAUCA
# B11: chr22:36281740:36281783:-|3pUTR|ENSG00000100345|msi1_unk|total|mutant (ssRNA)
# RNA: GGGAGUUCUACAGUCCGACGAUCUCUGACAGCCAGAGCGUCCGAGGGGCCAGCGGCCCUCCCAGGCGAUCUUGUGUCUACUCCCGGACUGGGCCCGAGGGUGGUUUACCUGCACCGUUGACUCAGUACCGUUUAAAAAUCUGCCAACAGAGGAUUGAGCAUCA
# B12: chr1:227780961:227781062:+|3pUTR|ENSG00000143740|unk|FALSE|unique (ssRNA)
# RNA: GGGAGUUCUACAGUCCGACGAUCCCUGGAAGAGGCCGCCCUCGUCUUGUCUCGGCUCCCUUUCAUGGACAGACUGGCCUUCUUAGCUGUACUAUAAAUUUGUGAGUGAAGUUAGAGCCCAGCUCACUUAGCCAGCUCACUUUGCAACAGAGGAUUGAGCAUCA
# B13: chr7:6023389:6023508:+|CDS|ENSG00000106305|unk|FALSE|unique (ssRNA)
# RNA: GGGAGUUCUACAGUCCGACGAUCGUUCUCUCUGUUUGGCCAGAAGCAUAAUGCUGUCAACGCAACCCUUAUAGAUAGCUGGGUAGAUAUUGCGAUUUUUCAGUUAAAAGAGGGAAGCAGUAAAGAAAAAGCCGCUGUUUUCCGCAACAGAGGAUUGAGCAUCA
# B14: chr19:10683396:10683509:+|CDS|ENSG00000129351|unk|total|mutant (ssRNA)
# RNA: GGGAGUUCUACAGUCCGACGAUCGUUCCAAGGUGCUGGUUCCAACAAAAAGGUGGCGAAGGCCUACGCUGCUCUUGCUGCCCCCGAAAAGCUUUUCCCUGACACCCCUCUCGCCCUUGAUGCCAACAAAAAGAAGAGAGCCCCCAACAGAGGAUUGAGCAUCA
# B15: ENSG00000107863:be:win_1251|CDS|ENSG00000107863|bound_else_gene|NA|bound_elsewhere_windowed (ssRNA)
# RNA: GGGAGUUCUACAGUCCGACGAUCAGCAUCUCAAAGCACGACAGAUUAUAACCAGGUCGUCCCCAACCGCACUACUUUGCAGGGACGACGUCGAAGCACCUCUCAUGAUCGAGUGCCCCAGUCUGUCCAGAUACGGCAACGCAGCAACAGAGGAUUGAGCAUCA
# B16: chr17:67854386:67854487:+|CDS|ENSG00000171634|unk|FALSE|unique (ssRNA)
# RNA: GGGAGUUCUACAGUCCGACGAUCAGAGGCAGAGGACUACCCAUAUGGACCAGUAGAGAACAAGAUCAAAGUUCUACAGUUUCUAGUCGAUCAGUUUCUUACAACAAAUAUUGCUCGAGAGGAAUUGAUGUCUGAAGGGGUGAUCAACAGAGGAUUGAGCAUCA
# B17: chr13:24435276:24435388:-|CDS|ENSG00000102699|unk|total|mutant (ssRNA)
# RNA: GGGAGUUCUACAGUCCGACGAUCCAAAAGAAAAAUGGAAUUAUCUCAGCCAGAAGUUUCUGAAGAUUUUGAAGAGGAUGGCUCCGGUGUACUACCAGCUUUCACAUCAAAUUUGGAACGUGGAGGUGUGGAAAAGCUAUUGGACAACAGAGGAUUGAGCAUCA
# B18: chr3:48658964:48659065:-|CDS|ENSG00000008300|msi1|total|mutant (ssRNA)
# RNA: GGGAGUUCUACAGUCCGACGAUCCGAUGUCUCCGACCACCUCUUCUACUCCUUUGAGCGUGGCAAUGAGCUGCAGCUGCUGGCCGUCAACCAGACCAGUGGGGAGCUGCGACUCAGCCGAAAGCCCGACAAUAACCGCCCACUCAACAGAGGAUUGAGCAUCA
# B19: chr12:105021166:105021267:-|3pUTR|ENSG00000136010|unk|total|mutant (ssRNA)
# RNA: GGGAGUUCUACAGUCCGACGAUCAGUCAGACAGUGUCACUUCACUCGUCUGUUUAAAACCUUUCAAUGGCCCCCAUUUCACGCCGACCAAAGUCCAACGUAUUUACCUGGCCUACUGAUCUUGCUCCCCGCUACCUCUGACCUCAACAGAGGAUUGAGCAUCA
# B20: chr1:31434308:31434366:+|3pUTR|ENSG00000168528|msi1_unk|FALSE|overlapping (ssRNA)
# RNA: GGGAGUUCUACAGUCCGACGAUCGCCAGGCUGAGCCCCCACCCCUGCCCCAGCUCCAGGACCUGCCCCUGAGCCGGGCCUUCUAGUCGUAGUGCCUUCAGGGUCCGAGGAGCAUCAGGCUCCUGCAGAGCCCCAUCCCCCCGCCAACAGAGGAUUGAGCAUCA
# B21: ENSG00000070961:be:win_3601|CDS_3pUTR|ENSG00000070961|bound_else_gene|NA|bound_elsewhere_windowed (ssRNA)
# RNA: GGGAGUUCUACAGUCCGACGAUCAACAAGUCUGCUACCUCUUCAUCCCCAGGAAGCCCACUACAUAGUUUGGAAACAUCACUCUGAUUGUAAGCUGAAUGUUAACACACUAGCUGCAUUGUAAAGAAACAAAUUGAAACUGGGCAACAGAGGAUUGAGCAUCA
# B22: ENSG00000198589:be:win_1051|CDS|ENSG00000198589|bound_else_gene|NA|bound_elsewhere_windowed (ssRNA)
# RNA: GGGAGUUCUACAGUCCGACGAUCGCAGAUGCUAAUAGAGUAUUCUGUGGUCAGAUGACUGCAGUUUACCUUUUCAGUGAAGCUCUAAAUGCAGCUCAGAUAUUUGCUAUUUAUCAGUUGGGCCUGGGAUACAAGGGUACAUUUCAACAGAGGAUUGAGCAUCA
# Molecular target: MSI1 full-length (mouse, UniProt Q61474 1-362)
# Test: nsRBNS (natural sequence RNA bind-n-seq); RBNS binding buffer (assumed for nsRBNS): 25 mM Tris pH 7.5, 150 mM KCl, 3 mM MgCl2, 0.01% Triton X-100, 500 ug/ml BSA, 20 U/ml SUPERase-In, 4 C; UNK is unkempt and MSI1 is Musashi-1; names of the RNAs are library labels; protein concentration not given here; high values mean tight binding
# Chain of UniProt Q61474 (Q61474 whole entry): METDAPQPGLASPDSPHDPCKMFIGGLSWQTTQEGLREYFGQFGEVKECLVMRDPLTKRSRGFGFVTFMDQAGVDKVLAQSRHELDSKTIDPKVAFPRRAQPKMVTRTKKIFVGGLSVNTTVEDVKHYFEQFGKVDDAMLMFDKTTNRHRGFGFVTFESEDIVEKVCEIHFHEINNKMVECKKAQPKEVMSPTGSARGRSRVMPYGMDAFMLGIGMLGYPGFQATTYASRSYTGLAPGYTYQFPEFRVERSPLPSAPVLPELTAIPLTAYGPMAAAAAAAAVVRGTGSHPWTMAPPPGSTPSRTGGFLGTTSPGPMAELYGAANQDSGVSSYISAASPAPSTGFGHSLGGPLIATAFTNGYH
row,Binder,binding signal [enrichment R]
1,B1,0.279
2,B2,0.687
3,B3,1.43
4,B4,0.365
5,B5,1.89
6,B6,0.472
7,B7,0.488
8,B8,0.823
9,B9,21.3
10,B10,1.79
11,B11,0.375
12,B12,0.793
13,B13,7.45
14,B14,0.675
15,B15,0.374
16,B16,0.706
17,B17,0.333
18,B18,0.463
19,B19,0.608
20,B20,1.98
21,B21,0.399
22,B22,6.62
